Test results as given in the supplement of paper PMC3724861.
Some of the results follow.

These sequences were tested on T1, Caupolican (Caup) homeodomain DNA-binding domain (assay: PBM E-score (8-mer, recovered from the published 9-mer minima) (E-score (dimensionless, -0.5 to 0.5)); Drosophila protein; higher = stronger relative binding preference, active = 0.31 or more).
T1 sequence: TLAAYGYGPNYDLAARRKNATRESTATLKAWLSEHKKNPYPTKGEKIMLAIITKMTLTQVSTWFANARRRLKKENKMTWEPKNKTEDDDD
Summary of the method: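 An enrichment score, with higher meaning stronger, expresses relative binding preference for each short DNA word. The protein used was Caup's homeodomain DNA-binding domain (residues 214-303), produced by in vitro transcription and translation and tested at 100 nM on custom-designed protein binding microarrays. The 8-mer values were recovered from published 9-mer scores, each equal to the lower of its two constituent 8-mer scores.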

| Sequence | PBM E-score |
| --- | --- |
| CCACGCCC | inactive: -0.293 |
| ACTTGTCT | inactive: 0.267 |
| ATTCTCCA | inactive: 0.00731 |
| AGACGGGA | inactive: -0.0718 |
| ACTAACTC | inactive: -0.00618 |
| ACGTCGAT | ≥ 0.065 |
| CCGTCATA | inactive: -0.0609 |
| CAATTAGC | inactive: 0.00801 |
| ACACTTTA | ≥ 0.17 |
| CTGATAAG | inactive: 0.0562 |
| TACCATGA | inactive: 0.0158 |
| AGGGCCCG | inactive: -0.246 |
| GTCTTTCA | inactive: -0.0676 |
| ACCAATCA | inactive: 0.122 |
| ACGTTTGC | inactive: 0.00181 |
| CGAGAAAC | inactive: -0.0514 |
| ATCGGGAG | inactive: -0.0742 |
| AACCGCTT | inactive: 0.00313 |
| ATTCGCTG | inactive: 0.0251 |
| GACCGCGC | inactive: -0.169 |
| AAGCGGAC | inactive: -0.153 |

| Sequence | PBM E-score |
| --- | --- |
| CACGGTGG | inactive: 0.0613 |
| ACCGGGGC | inactive: -0.212 |
| GCGAAGTA | inactive: -0.0099 |
| ACAATGAG | inactive: 0.0755 |
| CCACGCTC | inactive: -0.249 |
| ACGGTGAC | inactive: 0.0442 |
| ATCGACAC | inactive: 0.203 |
| CTTCACAA | inactive: -0.0159 |
| ATATGCAG | inactive: 0.00703 |
| GCTGGTCA | inactive: -0.059 |
| ATGGTGGA | inactive: -0.0319 |
| CCGTTTAG | inactive: -0.13 |
| AACTGTCT | inactive: 0.0127 |
| AGGGTCGA | inactive: -0.131 |
| AGCAGTGA | inactive: 0.0041 |
| CCTCAAAG | inactive: -0.148 |
| AGTGAGTC | inactive: 0.0484 |
| ACCTCAGT | inactive: -0.00921 |
| CAATTTGC | inactive: -0.0334 |
| GCCCTTCC | inactive: -0.169 |
| ATTTAGAG | inactive: 0.00973 |

| Sequence | PBM E-score |
| --- | --- |
| AAGCGTTA | inactive: 0.0271 |
| ATCGGACC | inactive: -0.0566 |
| GACGCCAC | inactive: -0.11 |
| AAGGAAGC | inactive: -0.142 |
| TAGAACCA | inactive: 0.0285 |
| ACCCCGCG | inactive: -0.173 |
| GTAGCAGA | inactive: 0.0578 |
| CCCCCAAC | inactive: -0.254 |
| CCTGTGGA | inactive: -0.106 |
| GCAAGATA | inactive: 0.0639 |
| ATGCCGGC | inactive: -0.134 |
| GCGACCGC | inactive: -0.261 |
| ACGCTAAC | inactive: -0.0131 |
| AGAGGTGC | inactive: -0.134 |
| CAGGCACA | inactive: -0.0333 |
| CTAGATGA | inactive: -0.0284 |
| GTAATAAC | inactive: 0.26 |
| GAGGTTTA | inactive: -0.0507 |
| GTGCTGGA | inactive: -0.0566 |
